Results from PMC4608766, “The Roles of Arabidopsis CDF2 in Transcriptional and Posttranscriptional Regulation of Primary MicroRNAs” (PLoS Genetics, 2015).
No constants are given. Whether binding was seen depends on the method and setting. For some assays here: Binding seen in cells or lysates may run through a third protein. Some results given as binding are weak or reduced against the parent protein; the word gives no strength. Where a sequence is shown, tags or fusion partners need not be part of it.

T1: hemagglutinin (HA)-labeled CDF2 (pCDF2::CDF2-HA) (Arabidopsis) (UniProt Q93ZL5)
T1 sequence: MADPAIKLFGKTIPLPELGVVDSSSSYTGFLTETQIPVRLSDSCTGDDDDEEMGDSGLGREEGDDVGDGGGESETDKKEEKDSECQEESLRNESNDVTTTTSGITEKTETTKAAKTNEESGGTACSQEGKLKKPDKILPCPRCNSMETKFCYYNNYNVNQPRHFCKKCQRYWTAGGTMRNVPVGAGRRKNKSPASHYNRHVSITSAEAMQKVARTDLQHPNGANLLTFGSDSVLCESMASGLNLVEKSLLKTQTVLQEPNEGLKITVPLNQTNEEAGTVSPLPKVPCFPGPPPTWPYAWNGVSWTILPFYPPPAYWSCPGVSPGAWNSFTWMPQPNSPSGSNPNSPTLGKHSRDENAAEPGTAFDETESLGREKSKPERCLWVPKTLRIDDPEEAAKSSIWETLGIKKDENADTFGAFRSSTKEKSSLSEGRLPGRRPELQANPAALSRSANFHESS

T2: HYL1, BiFC fusion (Arabidopsis) (UniProt O04492)
T2 sequence: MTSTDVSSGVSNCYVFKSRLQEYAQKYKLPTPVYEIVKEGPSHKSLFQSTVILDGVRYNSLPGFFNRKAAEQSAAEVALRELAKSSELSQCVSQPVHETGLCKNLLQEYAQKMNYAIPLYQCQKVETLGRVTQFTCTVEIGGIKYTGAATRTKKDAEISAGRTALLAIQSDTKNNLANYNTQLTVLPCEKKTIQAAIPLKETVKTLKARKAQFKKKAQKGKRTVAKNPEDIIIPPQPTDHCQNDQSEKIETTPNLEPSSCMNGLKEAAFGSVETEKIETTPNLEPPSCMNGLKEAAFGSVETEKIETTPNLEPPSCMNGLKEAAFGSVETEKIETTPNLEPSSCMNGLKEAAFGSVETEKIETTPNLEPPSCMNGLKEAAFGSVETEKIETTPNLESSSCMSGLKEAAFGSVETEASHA

T3: full-length HYL1, two-hybrid fusion (Arabidopsis) (UniProt O04492)
T3 sequence: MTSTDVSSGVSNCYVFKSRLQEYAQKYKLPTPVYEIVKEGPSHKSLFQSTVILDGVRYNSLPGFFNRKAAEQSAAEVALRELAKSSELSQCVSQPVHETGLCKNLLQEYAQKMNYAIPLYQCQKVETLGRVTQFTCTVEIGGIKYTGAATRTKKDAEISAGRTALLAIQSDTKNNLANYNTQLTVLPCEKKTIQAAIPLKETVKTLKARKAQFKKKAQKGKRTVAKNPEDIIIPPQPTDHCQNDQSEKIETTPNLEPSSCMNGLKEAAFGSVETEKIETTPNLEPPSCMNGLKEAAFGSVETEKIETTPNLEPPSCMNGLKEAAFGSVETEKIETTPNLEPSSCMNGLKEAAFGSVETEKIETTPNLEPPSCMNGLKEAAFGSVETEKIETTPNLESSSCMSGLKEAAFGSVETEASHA

T4: two C-terminal dsRBDs of DCL1 (DCL1-RBD, aa 1733-1910), two-hybrid fusion (Arabidopsis) (UniProt Q9SP32)
T4 sequence: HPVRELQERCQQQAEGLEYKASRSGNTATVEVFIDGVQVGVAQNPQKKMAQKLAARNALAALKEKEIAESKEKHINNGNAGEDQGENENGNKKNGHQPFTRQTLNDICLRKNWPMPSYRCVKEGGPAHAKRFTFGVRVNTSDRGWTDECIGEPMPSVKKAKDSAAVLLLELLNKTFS


How the values were obtained:
[1] = target: T1, hemagglutinin (HA)-labeled CDF2 (pCDF2::CDF2-HA) (Arabidopsis); assay: co-IP; extracts of 22-day-old Arabidopsis plants coexpressing pCDF2::CDF2-HA and pDCL1::DCL1-YFP; anti-HA agarose; blots with anti-GFP and anti-HA
[2] = target: DCL1, BiFC fusion (Arabidopsis) (UniProt Q9SP32); assay: split reporter; BiFC: YFPN- and YFPC-tagged plasmids co-expressed in tobacco leaves, imaged 48 h after co-inoculation
[3] = target: T2, HYL1, BiFC fusion (Arabidopsis); assay: as above
[4] = target: T3, full-length HYL1, two-hybrid fusion (Arabidopsis); assay: two-hybrid; direct co-transformation (ProQuest system); growth on SC minus His, Trp and Leu with 5 mM 3-AT
[5] = target: T4, two C-terminal dsRBDs of DCL1 (DCL1-RBD, aa 1733-1910), two-hybrid fusion (Arabidopsis); assay: as above

Molecule | binding [5] | other results
yellow fluorescent protein (YFP)-labeled DCL1 (pDCL1::DCL1-YFP) (from UniProt Q9SP32 1-1909) |  | binding [1]: binds
C-terminal fragment of CDF2 (CDF2-C, from aa 280 to 457), BiFC fusion (domain or fragment, UniProt Q93ZL5 280-457) SPLPKVPCFPGPPPTWPYAWNGVSWTILPFYPPPAYWSCPGVSPGAWNSFTWMPQPNSPSGSNPNSPTLGKHSRDENAAEPGTAFDETESLGREKSKPERCLWVPKTLRIDDPEEAAKSSIWETLGIKKDENADTFGAFRSSTKEKSSLSEGRLPGRRPELQANPAALSRSANFHESS |  | binding [2]: binds; binding [3]: binds
CDF2, BiFC fusion (protein, UniProt Q93ZL5 1-457) MADPAIKLFGKTIPLPELGVVDSSSSYTGFLTETQIPVRLSDSCTGDDDDEEMGDSGLGREEGDDVGDGGGESETDKKEEKDSECQEESLRNESNDVTTTTSGITEKTETTKAAKTNEESGGTACSQEGKLKKPDKILPCPRCNSMETKFCYYNNYNVNQPRHFCKKCQRYWTAGGTMRNVPVGAGRRKNKSPASHYNRHVSITSAEAMQKVARTDLQHPNGANLLTFGSDSVLCESMASGLNLVEKSLLKTQTVLQEPNEGLKITVPLNQTNEEAGTVSPLPKVPCFPGPPPTWPYAWNGVSWTILPFYPPPAYWSCPGVSPGAWNSFTWMPQPNSPSGSNPNSPTLGKHSRDENAAEPGTAFDETESLGREKSKPERCLWVPKTLRIDDPEEAAKSSIWETLGIKKDENADTFGAFRSSTKEKSSLSEGRLPGRRPELQANPAALSRSANFHESS |  | binding [2]: binds; binding [3]: binds
CDF2 C1 fragment (aa 189-457), two-hybrid fusion (domain or fragment, UniProt Q93ZL5 189-457) KNKSPASHYNRHVSITSAEAMQKVARTDLQHPNGANLLTFGSDSVLCESMASGLNLVEKSLLKTQTVLQEPNEGLKITVPLNQTNEEAGTVSPLPKVPCFPGPPPTWPYAWNGVSWTILPFYPPPAYWSCPGVSPGAWNSFTWMPQPNSPSGSNPNSPTLGKHSRDENAAEPGTAFDETESLGREKSKPERCLWVPKTLRIDDPEEAAKSSIWETLGIKKDENADTFGAFRSSTKEKSSLSEGRLPGRRPELQANPAALSRSANFHESS | binds | 
CDF2 C3 fragment (aa 360-457), two-hybrid fusion (domain or fragment, UniProt Q93ZL5 360-457) PGTAFDETESLGREKSKPERCLWVPKTLRIDDPEEAAKSSIWETLGIKKDENADTFGAFRSSTKEKSSLSEGRLPGRRPELQANPAALSRSANFHESS | binds | 
GTAFDETESLGREKSKPERCLWVPKTLRIDDPEEAAKS (domain or fragment, UniProt Q93ZL5 361-398) [CDF2 C5 fragment (aa 361-398), two-hybrid fusion] | no binding | 
CDF2 C4 fragment (aa 361-436), two-hybrid fusion (domain or fragment, UniProt Q93ZL5 361-436) GTAFDETESLGREKSKPERCLWVPKTLRIDDPEEAAKSSIWETLGIKKDENADTFGAFRSSTKEKSSLSEGRLPGR | binds | 

Now from value to molecule, other results behind:

binding [5] | Molecule | other results
binds | full-length CDF2, two-hybrid fusion (protein, UniProt Q93ZL5 1-457) MADPAIKLFGKTIPLPELGVVDSSSSYTGFLTETQIPVRLSDSCTGDDDDEEMGDSGLGREEGDDVGDGGGESETDKKEEKDSECQEESLRNESNDVTTTTSGITEKTETTKAAKTNEESGGTACSQEGKLKKPDKILPCPRCNSMETKFCYYNNYNVNQPRHFCKKCQRYWTAGGTMRNVPVGAGRRKNKSPASHYNRHVSITSAEAMQKVARTDLQHPNGANLLTFGSDSVLCESMASGLNLVEKSLLKTQTVLQEPNEGLKITVPLNQTNEEAGTVSPLPKVPCFPGPPPTWPYAWNGVSWTILPFYPPPAYWSCPGVSPGAWNSFTWMPQPNSPSGSNPNSPTLGKHSRDENAAEPGTAFDETESLGREKSKPERCLWVPKTLRIDDPEEAAKSSIWETLGIKKDENADTFGAFRSSTKEKSSLSEGRLPGRRPELQANPAALSRSANFHESS | binding [4]: binds
no binding | AKSSIWETLGIKKDENADTFGAFRSS (domain or fragment, UniProt Q93ZL5 396-421) [CDF2 C7 fragment (aa 396-421), two-hybrid fusion] | 
no binding | CDF2 C6 fragment (aa 396-457), two-hybrid fusion (domain or fragment, UniProt Q93ZL5 396-457) AKSSIWETLGIKKDENADTFGAFRSSTKEKSSLSEGRLPGRRPELQANPAALSRSANFHESS | 
no binding | KTLRIDDPEEAAKSSI (domain or fragment, UniProt Q93ZL5 385-400) [CDF2 C8 fragment (aa 385-400), two-hybrid fusion] | 
